# According to the supplement of paper PMC8728848:
# This is one part of the list.
# Tests used:
# Experiment in all cases: glycan array binding signal (z-score within array); higher = stronger binding
# Details in all cases: glycan notation: IUPAC condensed, linker removed
# [1] = biological target: GlcNAc(a1-6)Gal(b1-4)GlcNAc
# Method in brief: (§1)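 Columns mapping to the same glycan were averaged after glycan names were converted to IUPAC-condensed notation. The data come from 3228 arrays in the Consortium for Functional Glycomics database, limited to those with an available protein sequence. Binding is reported as a within-array Z-score averaged across arrays of one protein sequence and across linkers.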
# [2] = biological target: GlcNAc(b1-2)Gal(b1-3)GalNAc
# Method in brief: as §1
# [3] = biological target: GlcNAc(b1-2)Man(a1-3)[GlcNAc(b1-2)Man(a1-6)]Man(b1-4)GlcNAc(b1-4)GlcNAc
# Method in brief: as §1
# [4] = biological target: GlcNAc(b1-2)Man(a1-3)[GlcNAc(b1-2)Man(a1-6)]Man(b1-4)GlcNAc(b1-4)[Fuc(a1-6)]GlcNAc
# Method in brief: as §1
# [5] = biological target: GlcNAc(b1-2)Man(a1-3)[GlcNAc(b1-4)][GlcNAc(b1-2)Man(a1-6)]Man(b1-4)GlcNAc(b1-4)GlcNAc
# Method in brief: as §1
# [6] = biological target: GlcNAc(b1-2)Man(a1-3)[GlcNAc(b1-4)][GlcNAc(b1-2)Man(a1-6)]Man(b1-4)GlcNAc(b1-4)[Fuc(a1-6)]GlcNAc
# Method in brief: as §1
# [7] = biological target: GlcNAc(b1-2)[GlcNAc(b1-4)]Man(a1-3)[GlcNAc(b1-2)Man(a1-6)]Man(b1-4)GlcNAc(b1-4)GlcNAc
# Method in brief: as §1
# [8] = biological target: GlcNAc(b1-2)[GlcNAc(b1-4)]Man(a1-3)[GlcNAc(b1-4)][GlcNAc(b1-2)Man(a1-6)]Man(b1-4)GlcNAc(b1-4)GlcNAc
# Method in brief: as §1
# [9] = biological target: GlcNAc(b1-2)[GlcNAc(b1-4)]Man(a1-3)[GlcNAc(b1-4)][GlcNAc(b1-2)[GlcNAc(b1-6)]Man(a1-6)]Man(b1-4)GlcNAc(b1-4)GlcNAc
# Method in brief: as §1
# [10] = biological target: GlcNAc(b1-2)[GlcNAc(b1-4)]Man(a1-3)[GlcNAc(b1-4)][GlcNAc(b1-2)[GlcNAc(b1-6)]Man(a1-6)]Man(b1-4)GlcNAc(b1-4)[Fuc(a1-6)]GlcNAc
# Method in brief: as §1
# [11] = biological target: GlcNAc(b1-2)[GlcNAc(b1-6)]Man(a1-6)[GlcNAc(b1-2)Man(a1-3)]Man(b1-4)GlcNAc(b1-4)GlcNAc
# Method in brief: as §1
# [12] = biological target: GlcNAc(b1-2)[GlcNAc(b1-6)]Man(a1-6)[GlcNAc(b1-2)Man(a1-3)]Man(b1-4)GlcNAc(b1-4)[Fuc(a1-6)]GlcNAc
# Method in brief: as §1
# [13] = biological target: GlcNAc(b1-2)[GlcNAc(b1-6)]Man(a1-6)[GlcNAc(b1-4)][GlcNAc(b1-2)Man(a1-3)]Man(b1-4)GlcNAc(b1-4)GlcNAc
# Method in brief: as §1
# GlcNAc(b1-3)Fuc = biological target: GlcNAc(b1-3)Fuc
# Method in brief: as §1
# GlcNAc(b1-3)Gal = biological target: GlcNAc(b1-3)Gal
# Method in brief: as §1
# [14] = biological target: GlcNAc(b1-3)Gal(b1-3)GalNAc
# Method in brief: as §1
# GlcNAc(b1-3)Gal(b1-4)Glc = biological target: GlcNAc(b1-3)Gal(b1-4)Glc
# Method in brief: as §1
# [15] = biological target: GlcNAc(b1-3)Gal(b1-4)GlcNAc
# Method in brief: as §1
# [16] = biological target: GlcNAc(b1-3)Gal(b1-4)GlcNAc(b1-2)Man(a1-3)[GlcNAc(b1-3)Gal(b1-4)GlcNAc(b1-2)Man(a1-6)]Man(b1-4)GlcNAc(b1-4)GlcNAc
# Method in brief: as §1
# [17] = biological target: GlcNAc(b1-3)Gal(b1-4)GlcNAc(b1-2)Man(a1-3)[GlcNAc(b1-3)Gal(b1-4)GlcNAc(b1-2)Man(a1-6)]Man(b1-4)GlcNAc(b1-4)[Fuc(a1-6)]GlcNAc
# Method in brief: as §1
# [18] = biological target: GlcNAc(b1-3)Gal(b1-4)GlcNAc(b1-2)[GlcNAc(b1-3)Gal(b1-4)GlcNAc(b1-6)]Man(a1-6)[GlcNAc(b1-3)Gal(b1-4)GlcNAc(b1-2)Man(a1-3)]Man(b1-4)GlcNAc(b1-4)GlcNAc
# Method in brief: as §1
# [19] = biological target: GlcNAc(b1-3)Gal(b1-4)GlcNAc(b1-3)Gal(b1-4)GlcNAc
# Method in brief: as §1
# [20] = biological target: GlcNAc(b1-3)Gal(b1-4)GlcNAc(b1-3)Gal(b1-4)GlcNAc(b1-2)Man(a1-3)[GlcNAc(b1-3)Gal(b1-4)GlcNAc(b1-3)Gal(b1-4)GlcNAc(b1-2)Man(a1-6)]Man(b1-4)GlcNAc(b1-4)GlcNAc
# Method in brief: as §1
# [21] = biological target: GlcNAc(b1-3)Gal(b1-4)GlcNAc(b1-3)Gal(b1-4)GlcNAc(b1-2)Man(a1-3)[GlcNAc(b1-3)Gal(b1-4)GlcNAc(b1-3)Gal(b1-4)GlcNAc(b1-2)Man(a1-6)]Man(b1-4)GlcNAc(b1-4)[Fuc(a1-6)]GlcNAc
# Method in brief: as §1
# [22] = biological target: GlcNAc(b1-3)Gal(b1-4)GlcNAc(b1-3)Gal(b1-4)GlcNAc(b1-2)[GlcNAc(b1-3)Gal(b1-4)GlcNAc(b1-3)Gal(b1-4)GlcNAc(b1-6)]Man(a1-6)[GlcNAc(b1-3)Gal(b1-4)GlcNAc(b1-3)Gal(b1-4)GlcNAc(b1-2)Man(a1-3)]Man(b1-4)GlcNAc(b1-4)[Fuc(a1-6)]GlcNAc
# Method in brief: as §1
# [23] = biological target: GlcNAc(b1-3)Gal(b1-4)GlcNAc(b1-3)Gal(b1-4)GlcNAc(b1-3)Gal(b1-4)GlcNAc(b1-2)Man(a1-3)[GlcNAc(b1-3)Gal(b1-4)GlcNAc(b1-3)Gal(b1-4)GlcNAc(b1-3)Gal(b1-4)GlcNAc(b1-2)Man(a1-6)]Man(b1-4)GlcNAc(b1-4)GlcNAc
# Method in brief: as §1
# [24] = biological target: GlcNAc(b1-3)Gal(b1-4)GlcNAc(b1-3)Gal(b1-4)GlcNAc(b1-3)Gal(b1-4)GlcNAc(b1-2)Man(a1-3)[GlcNAc(b1-3)Gal(b1-4)GlcNAc(b1-3)Gal(b1-4)GlcNAc(b1-3)Gal(b1-4)GlcNAc(b1-2)Man(a1-6)]Man(b1-4)GlcNAc(b1-4)[Fuc(a1-6)]GlcNAc
# Method in brief: as §1
# [25] = biological target: GlcNAc(b1-3)Gal(b1-4)GlcNAc(b1-3)Gal(b1-4)GlcNAc(b1-3)Gal(b1-4)GlcNAc(b1-2)[GlcNAc(b1-3)Gal(b1-4)GlcNAc(b1-3)Gal(b1-4)GlcNAc(b1-3)Gal(b1-4)GlcNAc(b1-6)]Man(a1-6)[GlcNAc(b1-3)Gal(b1-4)GlcNAc(b1-3)Gal(b1-4)GlcNAc(b1-3)Gal(b1-4)GlcNAc(b1-2)Man(a1-3)]Man(b1-4)GlcNAc(b1-4)[Fuc(a1-6)]GlcNAc
# Method in brief: as §1
# [26] = biological target: GlcNAc(b1-3)Gal(b1-4)GlcNAc(b1-3)Gal(b1-4)GlcNAc(b1-3)Gal(b1-4)GlcNAc(b1-3)Gal(b1-4)GlcNAc(b1-2)Man(a1-3)[GlcNAc(b1-3)Gal(b1-4)GlcNAc(b1-3)Gal(b1-4)GlcNAc(b1-3)Gal(b1-4)GlcNAc(b1-3)Gal(b1-4)GlcNAc(b1-2)Man(a1-6)]Man(b1-4)GlcNAc(b1-4)GlcNAc
# Method in brief: as §1
# [27] = biological target: GlcNAc(b1-3)Gal(b1-4)GlcNAc(b1-3)Gal(b1-4)GlcNAc(b1-3)Gal(b1-4)GlcNAc(b1-3)Gal(b1-4)GlcNAc(b1-2)Man(a1-3)[GlcNAc(b1-3)Gal(b1-4)GlcNAc(b1-3)Gal(b1-4)GlcNAc(b1-3)Gal(b1-4)GlcNAc(b1-3)Gal(b1-4)GlcNAc(b1-2)Man(a1-6)]Man(b1-4)GlcNAc(b1-4)[Fuc(a1-6)]GlcNAc
# Method in brief: as §1
# [28] = biological target: GlcNAc(b1-3)Gal(b1-4)GlcNAc(b1-3)Gal(b1-4)GlcNAc(b1-3)Gal(b1-4)GlcNAc(b1-3)Gal(b1-4)GlcNAc(b1-2)[GlcNAc(b1-3)Gal(b1-4)GlcNAc(b1-3)Gal(b1-4)GlcNAc(b1-3)Gal(b1-4)GlcNAc(b1-3)Gal(b1-4)GlcNAc(b1-6)]Man(a1-6)[GlcNAc(b1-3)Gal(b1-4)GlcNAc(b1-3)Gal(b1-4)GlcNAc(b1-3)Gal(b1-4)GlcNAc(b1-3)Gal(b1-4)GlcNAc(b1-2)Man(a1-3)]Man(b1-4)GlcNAc(b1-4)[Fuc(a1-6)]GlcNAc
# Method in brief: as §1
# [29] = biological target: GlcNAc(b1-3)Gal(b1-4)GlcNAc(b1-3)Gal(b1-4)GlcNAc(b1-3)GalNAc
# Method in brief: as §1
# [30] = biological target: GlcNAc(b1-3)Gal(b1-4)GlcNAc(b1-3)GalNAc
# Method in brief: as §1
# [31] = biological target: GlcNAc(b1-3)Gal(b1-4)GlcNAc(b1-3)[GlcNAc(b1-3)Gal(b1-4)GlcNAc(b1-3)]GalNAc
# Method in brief: as §1
# [32] = biological target: GlcNAc(b1-3)Gal(b1-4)GlcNAc(b1-6)[Gal(b1-3)]GalNAc
# Method in brief: as §1
# [33] = biological target: GlcNAc(b1-3)Gal(b1-4)GlcNAc(b1-6)[GlcNAc(b1-3)Gal(b1-3)]GalNAc
# Method in brief: as §1
# [34] = biological target: GlcNAc(b1-3)Gal(b1-4)GlcNAc(b1-6)[GlcNAc(b1-3)]Gal(b1-4)GlcNAc
# Method in brief: as §1
binder,measurement,setting,value
"Gal-9-hFc (Mus musculus), O08573-2 (protein) MALFSAQSPYINPIIPFTGPIQGGLQEGLQVTLQGTTKSFAQRFVVNFQNSFNGNDIAFHFNPRFEEGGYVVCNTKQNGQWGPEERKMQMPFQKGMPFELCFLVQRSEFKVMVNKKFFVQYQHRVPYHLVDTIAVSGCLKLSFITFQTQNFRPAHQAPMAQTTIHMVHSTPGQMFSTPGIPPVVYPTPAYTIPFYTPIPNGLYPSKSIMISGNVLPDATRFHINLRCGGDIAFHLNPRFNENAVVRNTQINNSWGQEERSLLGRMPFSRGQSFSVWIICEGHCFKVAVNGQHMCEYYHRLKNLQDINTLEVAGDIQLTHVQT",glycan array binding signal (z-score),[1],-0.459
same,glycan array binding signal (z-score),[2],-0.319
same,glycan array binding signal (z-score),[3],-0.437
same,glycan array binding signal (z-score),[4],0.079
same,glycan array binding signal (z-score),[5],-0.371
same,glycan array binding signal (z-score),[6],-0.566
same,glycan array binding signal (z-score),[7],-0.473
same,glycan array binding signal (z-score),[8],2.04
same,glycan array binding signal (z-score),[9],-0.447
same,glycan array binding signal (z-score),[10],-0.554
same,glycan array binding signal (z-score),[11],-0.525
same,glycan array binding signal (z-score),[12],-0.498
same,glycan array binding signal (z-score),[13],-0.566
same,glycan array binding signal (z-score),GlcNAc(b1-3)Fuc,-0.429
same,glycan array binding signal (z-score),GlcNAc(b1-3)Gal,-0.151
same,glycan array binding signal (z-score),[14],-0.326
same,glycan array binding signal (z-score),GlcNAc(b1-3)Gal(b1-4)Glc,-0.401
same,glycan array binding signal (z-score),[15],-0.323
same,glycan array binding signal (z-score),[16],-0.435
same,glycan array binding signal (z-score),[17],-0.203
same,glycan array binding signal (z-score),[18],-0.084
same,glycan array binding signal (z-score),[19],-0.363
same,glycan array binding signal (z-score),[20],0.436
same,glycan array binding signal (z-score),[21],-0.174
same,glycan array binding signal (z-score),[22],0.174
same,glycan array binding signal (z-score),[23],-0.186
same,glycan array binding signal (z-score),[24],1.04
same,glycan array binding signal (z-score),[25],0.397
same,glycan array binding signal (z-score),[26],-0.207
same,glycan array binding signal (z-score),[27],-0.392
same,glycan array binding signal (z-score),[28],-0.19
same,glycan array binding signal (z-score),[29],0.003
same,glycan array binding signal (z-score),[30],-0.339
same,glycan array binding signal (z-score),[31],-0.486
same,glycan array binding signal (z-score),[32],-0.325
same,glycan array binding signal (z-score),[33],-0.149
same,glycan array binding signal (z-score),[34],-0.207
